{
  "source": "PubChem BioAssay AID2546",
  "about": "(National Center for Advancing Translational Sciences (NCATS), 2010)",
  "note": "Where “and” joins values, the source holds several entries; their conditions need not be identical. Identical values can stand only once. The whole screen tested about 310,000 compounds, of which about 11,000 (3.5%) were called active. This list was built around the results that the source calls inconclusive (neither active nor inactive); the mix of calls is not that of the screen. The call rests on the fitted dose curve; in most records, active means well fitted inhibition curve with a large enough effect; inconclusive means small, poorly fitted or top-dose-only effect, or effect the other way; inactive means flat fitted curve, though single readings scatter. Potencies of inconclusive entries are doubtful fits and often do not repeat. Potency means the concentration at half of the fitted maximal effect; tags describe the fitted curve by direction and shape.",
  "data": [
    {"assay": "VP16 counterscreen qHTS for inhibitors of ROR gamma transcriptional activity;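 further: Gal4-VP16 expression switched on by copper sulfate through the metallothionein promoter; nearly all actives have a fitted effect of over 50% in size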", "conditions": "Drosophila S2 Gal4-VP16 UAS-luciferase, luminescence, 20 h; series mostly up to 53.6 µM", "values": [
      {"molecule": "COCCCNC(=O)c1c[nH]c2ccc(S(=O)(=O)N3CCc4ccccc43)cc2c1=O", "Potency": "inconclusive: 17.8 µM [inhibitor, single point]"},
      {"molecule": "CCCCC[C@H](O)/C=C/[C@H]1C=CC(=O)[C@@H]1C/C=C\\CCCC(=O)O", "Potency": "inactive and inconclusive: 35.5 µM [inhibitor, single point]"},
      {"molecule": "COc1ccc(-c2nc(-c3ccc(O)cc3O)cs2)cc1OC", "Potency": "inconclusive: 20 µM [inhibitor, single point]"},
      {"molecule": "CC(=O)Nc1nc2ccccc2n1Cc1ccccc1C", "Potency": "active: 3.16 µM"},
      {"molecule": "COc1ccccc1N1CCN(/N=C/c2cccc(Cl)c2)CC1", "Potency": "inconclusive: 0.708 µM [activator, full curve, poor fit]"},
      {"molecule": "CC(=O)c1c(N2CCN(Cc3ccccc3)CC2)nc(=S)n(Cc2ccccc2)c1C", "Potency": "inconclusive: 12.6 µM [inhibitor, partial curve]"},
      {"molecule": "COc1ccccc1CCC(=O)N(Cc1ccccc1)c1c(N)n(Cc2ccccc2)c(=O)[nH]c1=O", "Potency": "inactive"},
      {"molecule": "CCOC(=O)c1ccc(N2C(=O)CC(SCC(=O)Nc3ccc(S(N)(=O)=O)cc3)C2=O)cc1", "note": "(centres undefined)", "Potency": "inconclusive: 22.4 µM [inhibitor, single point]"},
      {"molecule": "CCN(CC)S(=O)(=O)c1cccc(C(=O)N/N=C(\\C)c2cccs2)c1", "Potency": "inconclusive: 35.5 µM [inhibitor, single point]"},
      {"molecule": "O=C1OC(C(=O)Nc2ccccc2)Cc2ccccc21", "note": "(centres undefined)", "Potency": "inconclusive: 0.562 µM [activator, full curve]"},
      {"molecule": "O=c1[nH]c(NNC(=S)NC2CCCCC2)nc2c1C1(CCCC1)Cc1ccccc1-2", "Potency": "active: 25.1 µM"},
      {"molecule": "O=C(NNC1=NS(=O)(=O)c2ccccc21)c1ccc([N+](=O)[O-])cc1", "Potency": "inconclusive: 15.8 µM [inhibitor, partial curve, poor fit]"},
      {"molecule": "CCCS(=O)(=O)Nc1c(C(=O)O)[nH]c2ccccc12", "Potency": "inconclusive: 0.1 µM [inhibitor, full curve]"},
      {"molecule": "O=C(COc1cccnc1[N+](=O)[O-])Nc1ccc(S(=O)(=O)N2CCOCC2)cc1", "Potency": "inactive"},
      {"molecule": "CC(C)Cn1c(SCC(=O)N2CCc3ccccc3C2)nc2cc(Cl)ccc2c1=O", "Potency": "inconclusive: 35.5 µM [inhibitor, single point]"},
      {"molecule": "CC(Sc1ccccc1)C(=O)NN=C1CCCCCC1", "note": "(centres undefined)", "Potency": "inactive"},
      {"molecule": "COc1ccc(C2=NN(C3=NN=C(N)Cc4ncnn43)C(O)(C(F)(F)F)C2)cc1", "note": "(centres undefined)", "Potency": "active: 11.2 µM"},
      {"molecule": "COC(=O)C1=C(N)OC2=C(C(=O)CCC2)C1c1ccccc1OC", "note": "(centres undefined)", "Potency": "inactive"},
      {"molecule": "O=C(c1cc(COc2ccc3ncccc3c2)on1)N1CCCCCC1", "Potency": "inconclusive: 8.91 µM [inhibitor, partial curve]"},
      {"molecule": "CCCC(=O)c1ccc(N2CCN(C(=O)OCC)CC2)c(F)c1", "Potency": "inconclusive: 35.5 µM [inhibitor, single point]"},
      {"molecule": "O=C(N/N=C/c1ccco1)C1CC1(c1ccccc1)c1ccccc1", "note": "(centres undefined)", "Potency": "inconclusive: 15.8 µM [inhibitor, single point]"},
      {"molecule": "CCN(CC)C(=O)C[n+]1cccc(/C=N/O)c1", "Potency": "inconclusive: 5.62 µM [activator, single point]"},
      {"molecule": "O=C(Nc1ccncc1)c1ccc(-c2ccccc2)cc1", "Potency": "inconclusive: 3.55 µM [inhibitor, single point]"},
      {"molecule": "O=C(Nc1ccccc1F)NC1CCCc2ccccc21", "note": "(centres undefined)", "Potency": "inconclusive: 22.4 µM [activator, single point]"},
      {"molecule": "Oc1ccc(/C=N/Nc2ccnc3cc(Cl)ccc23)cc1O", "Potency": "inconclusive: 25.1 µM [inhibitor, single point]"},
      {"molecule": "CC(=O)N1C(C)c2ccccc2C(C)(C)CC12CCCCC2", "note": "(centres undefined)", "Potency": "inconclusive: 35.5 µM [inhibitor, single point]"},
      {"molecule": "Cc1ccccc1C(=O)NC(=S)Nc1ccc(N2CCN(C(=O)c3ccccc3)CC2)cc1", "Potency": "active: 5.62 µM"},
      {"molecule": "Cc1csc(NC(=O)c2cc3c(s2)CCCC3)n1", "Potency": "inconclusive: 0.794 µM [inhibitor, full curve]"},
      {"molecule": "CNC(=S)NNC(=O)c1cc(-c2cccnc2)nc2ccccc12", "Potency": "active: 15.8 µM"},
      {"molecule": "O=C(NNC(=S)NC(=O)c1ccccc1)c1ccc(O)cc1", "Potency": "inconclusive: 15.8 µM [inhibitor, single point]"},
      {"molecule": "Cc1onc(-c2ccccc2Cl)c1C(=O)O/N=C(\\N)c1ccccc1", "Potency": "active: 6.31 µM"},
      {"molecule": "O=C(Nc1nnc(-c2cccnc2)o1)c1ccccc1Cl", "Potency": "inconclusive: 22.4 µM [inhibitor, single point]"},
      {"molecule": "Cc1cccc(NC(=S)N2CCN(c3cc(C)ccc3C)CC2)c1", "Potency": "active: 5.62 µM"},
      {"molecule": "CCc1c(C)sc(NC(=O)c2noc(C)c2[N+](=O)[O-])c1C#N", "Potency": "inconclusive: 35.5 µM [inhibitor, single point]"},
      {"molecule": "c1ccc(N2CCN(c3ccccc3)C2c2cccnc2)cc1", "Potency": "inactive"},
      {"molecule": "O=C(CNc1cccc2ccccc12)N/N=C/c1cccc(Oc2ccccc2)c1", "Potency": "inconclusive: 22.4 µM [inhibitor, single point]"},
      {"molecule": "O=C(COc1ccccc1-c1ccccc1)NCc1ccco1", "Potency": "inconclusive: 35.5 µM [inhibitor, single point]"},
      {"molecule": "CC(=O)c1cccc(NC(=O)/C=C/c2ccc([N+](=O)[O-])s2)c1", "Potency": "active: 4.47 µM"},
      {"molecule": "CCC(=O)Nc1cccc(NC(=O)c2cccc([N+](=O)[O-])c2C)c1", "Potency": "inconclusive: 5.01 µM [activator, single point]"},
      {"molecule": "O=c1c2ccccc2nc2c3ccccc3c3nncn3n12", "Potency": "inactive"},
      {"molecule": "CN1CCN/C1=C(/C(Cl)=C(Cl)Cl)[N+](=O)[O-]", "Potency": "inactive"},
      {"molecule": "COCCNc1nc(-c2c(C)noc2C)nc2ccccc12", "Potency": "inactive"},
      {"molecule": "CC(=O)c1ccc(N2CCN(C(=O)CCCn3c(=S)[nH]c4cc5c(cc4c3=O)OCO5)CC2)cc1", "Potency": "inconclusive: 35.5 µM [inhibitor, single point]"},
      {"molecule": "NC(=O)COC(=O)c1cc(S(=O)(=O)N2CCOCC2)ccc1N1CCCCC1", "Potency": "inactive"},
      {"molecule": "Cc1ccc(-c2csc(Nc3ccc(S(N)(=O)=O)cc3)n2)o1", "Potency": "inconclusive: 11.2 µM [activator, single point]"},
      {"molecule": "CCCOc1ccccc1C1CC(=O)Nc2cc3c(cc21)OCO3", "note": "(centres undefined)", "Potency": "active: 14.1 µM"},
      {"molecule": "Cn1c2ccccc2c(=O)c2c(=O)n(C3CCCCC3)c(-c3ccco3)nc21", "Potency": "inactive"},
      {"molecule": "C=CCn1c(CCNC(=O)c2ccc(Cl)c(Cl)c2)nnc1SCCOc1ccc(OC)cc1", "Potency": "inconclusive: 35.5 µM [inhibitor, single point]"},
      {"molecule": "CC1CCCN(C(=O)CSCC(=O)N=c2sc3ccccc3n2C)C1", "note": "(centres undefined)", "Potency": "inconclusive: 35.5 µM [inhibitor, single point]"},
      {"molecule": "COc1ccc(NC(=O)c2cc3c(-c4ccc(OC)c(OC)c4)nn(C)c3s2)cc1OC", "Potency": "inactive"},
      {"molecule": "COc1ccc(/C=C/C(=O)c2ccc3c(c2)OCCO3)cc1[N+](=O)[O-]", "Potency": "inactive"},
      {"molecule": "CC(C)CNC(=S)Nc1ccccc1F", "Potency": "active: 4.47 µM"},
      {"molecule": "COc1ccc(-c2cc(-c3n[nH]c(=S)n3-c3ccccc3OC)[nH]n2)cc1", "Potency": "inconclusive: 35.5 µM [inhibitor, single point]"},
      {"molecule": "O=C(NC(=S)Nc1ccccn1)c1cncc(Br)c1", "Potency": "active: 7.94 µM"},
      {"molecule": "S=C(NC1CCCCC1)N1CCOCCOCCN(C(=S)NC2CCCCC2)CCOCC1", "Potency": "inconclusive: 35.5 µM [inhibitor, single point]"},
      {"molecule": "O=C(Nc1ccccn1)C(F)(F)C(F)(F)C(F)(F)C(F)(F)C(=O)Nc1ccccn1", "Potency": "inactive"},
      {"molecule": "COc1ccc(/C=N/NC(N)=S)cc1OC(=O)c1ccccc1", "Potency": "inconclusive: 25.1 µM [inhibitor, single point]"},
      {"molecule": "N#Cc1c(-c2cccc(Br)c2)cc(-c2cccnc2)nc1N", "Potency": "inconclusive: 35.5 µM [inhibitor, single point]"},
      {"molecule": "COc1cc2[nH]c(=O)n(CCC(=O)N3CCN(c4cc(Cl)ccc4C)CC3)c(=O)c2cc1OC", "Potency": "inconclusive: 20 µM [inhibitor, single point]"},
      {"molecule": "Cc1nc(N)sc1-c1csc(Nc2ncccn2)n1", "Potency": "inconclusive: 25.1 µM [inhibitor, single point]"},
      {"molecule": "O=C(Nc1nccs1)c1cn2ccccc2n1", "Potency": "active: 7.08 µM"},
      {"molecule": "C=CCNC(=S)NNC(=O)C(CCCC)CC(C)(C)O", "note": "(centres undefined)", "Potency": "active: 5.62 µM"},
      {"molecule": "O=C(COc1ccc(S(=O)(=O)NC2CCCCC2)cc1)N1CCN(c2cccc(Cl)c2)CC1", "Potency": "inconclusive: 35.5 µM [inhibitor, single point]"},
      {"molecule": "COCCn1c(=S)[nH]c2ccc(N(C)C)cc2c1=O", "Potency": "inconclusive: 35.5 µM [inhibitor, single point]"},
      {"molecule": "CN1/C(=C\\C(=O)COC(=O)c2ccco2)C(C)(C)c2ccccc21", "Potency": "inactive"},
      {"molecule": "Cc1ccc(C(c2nnnn2CCc2ccccc2)N2CCC(C)CC2)cc1", "note": "(centres undefined)", "Potency": "active: 14.1 µM"},
      {"molecule": "Cc1cc[n+](CC(=O)N2CCCc3ccccc32)cc1", "Potency": "inconclusive: 11.2 µM [inhibitor, partial curve]"},
      {"molecule": "O=C(Nc1ccsc1C(=O)O)c1ccc(Cl)cc1", "Potency": "inconclusive: 35.5 µM [inhibitor, single point]"},
      {"molecule": "Cc1cc(C)cc(N=Cc2[nH]c3ccc(Br)c(Cl)c3c2O)c1", "Potency": "inconclusive: 35.5 µM [inhibitor, single point]"},
      {"molecule": "c1csc(C2CCCN2c2nc3nonc3nc2NC2CC2)n1", "note": "(centres undefined)", "Potency": "active: 10 µM"},
      {"molecule": "Fc1ccc(CN2CCN(C(=S)NCCc3ccccc3)CC2)c(Cl)c1", "Potency": "inactive"},
      {"molecule": "Cc1ccc(SCC2(O)CCN(S(=O)(=O)c3ccc(Cl)cc3)CC2)cc1", "Potency": "inconclusive: 25.1 µM [inhibitor, single point]"},
      {"molecule": "CCc1ccc(OCC(=O)NC(=S)Nc2cccc(CO)c2)c(Br)c1", "Potency": "active: 10 µM"},
      {"molecule": "Cc1cc(CN(C)C(=O)c2ccc(OC3CCN(CCc4ccccc4)CC3)cc2)on1", "Potency": "inactive"}
    ]}
  ]
}
